The source of these data is publication PMC4336329 (PLoS ONE, 2015).

About 2,200 (0.71%) of roughly 310,000 compounds showed an effect of 50% or more. The effect is printed as a negative number. Some of the results follow.

Chain of human ether-à-go-go-related gene (hERG) potassium channel (Q12809 whole entry, looked up): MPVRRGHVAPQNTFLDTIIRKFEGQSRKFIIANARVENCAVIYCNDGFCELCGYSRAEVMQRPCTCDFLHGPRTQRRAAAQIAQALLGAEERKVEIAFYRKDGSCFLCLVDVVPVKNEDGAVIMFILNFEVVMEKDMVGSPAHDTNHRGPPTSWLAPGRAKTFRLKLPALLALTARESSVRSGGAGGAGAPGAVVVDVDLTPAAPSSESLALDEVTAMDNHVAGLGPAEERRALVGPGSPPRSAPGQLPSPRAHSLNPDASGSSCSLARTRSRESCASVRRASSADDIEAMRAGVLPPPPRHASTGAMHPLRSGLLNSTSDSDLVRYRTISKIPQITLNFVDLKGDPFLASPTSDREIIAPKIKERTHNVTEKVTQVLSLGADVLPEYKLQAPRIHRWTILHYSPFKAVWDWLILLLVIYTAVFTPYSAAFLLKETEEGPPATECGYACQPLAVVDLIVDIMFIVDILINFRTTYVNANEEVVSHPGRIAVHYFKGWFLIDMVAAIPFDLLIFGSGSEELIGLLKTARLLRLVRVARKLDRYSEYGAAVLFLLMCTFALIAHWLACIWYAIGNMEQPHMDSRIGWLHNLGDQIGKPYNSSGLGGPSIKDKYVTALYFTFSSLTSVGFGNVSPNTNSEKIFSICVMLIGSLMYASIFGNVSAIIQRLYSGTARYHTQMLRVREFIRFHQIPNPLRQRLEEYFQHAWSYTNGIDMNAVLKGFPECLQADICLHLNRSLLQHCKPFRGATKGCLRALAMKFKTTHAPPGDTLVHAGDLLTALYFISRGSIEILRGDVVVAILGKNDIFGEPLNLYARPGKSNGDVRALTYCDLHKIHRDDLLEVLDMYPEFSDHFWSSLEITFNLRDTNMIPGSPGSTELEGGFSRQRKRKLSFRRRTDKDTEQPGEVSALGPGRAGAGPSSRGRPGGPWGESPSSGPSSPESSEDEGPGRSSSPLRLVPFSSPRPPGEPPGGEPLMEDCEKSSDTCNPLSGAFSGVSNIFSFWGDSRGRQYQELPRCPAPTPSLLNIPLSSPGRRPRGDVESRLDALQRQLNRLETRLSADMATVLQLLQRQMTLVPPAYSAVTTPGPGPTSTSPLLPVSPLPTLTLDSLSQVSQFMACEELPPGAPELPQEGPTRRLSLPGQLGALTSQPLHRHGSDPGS

The assay concerns the target human ether-à-go-go-related gene (hERG) potassium channel (human, UniProt Q12809). In words: primary screen, population patch clamp on CHO cells stably expressing hERG.
For the compound `CCn1cc(/C=N/NC(=O)c2ccc(C#N)cc2F)c2ccccc21`, the “hERG current change (%, negative = inhibition) at 1uM” value is recorded as -6.05%. Consider `CN(C)c1cccc2c1c(NC(=O)Nc1ccccc1)nn2C`, for which the “hERG current change (%, negative = inhibition) at 1uM” value amounted to 8.15%. The same measure for `O=C(NNc1nc2ccccc2s1)C1CC1`: 3.55%. In the case of `CC(C)(C)OC(=O)N1CCC(CC2CC(c3ccccc3)=NO2)(C(=O)NCc2ccccc2)CC1` (stereo not drawn) it was 1.67%; in that of `COc1ccccc1N1CCN(CC(O)c2ccccc2)CC1` (stereo not drawn), 12%; in that of `Cc1ccc(C(=O)N=c2sccn2C)cc1C`, 6.34%. `Cc1c(C#N)c(N=CN(C)C)c(C(=O)c2ccccc2)n1-c1ccccc1`: the “hERG current change (%, negative = inhibition) at 1uM” value was 5.42%. Consider `O=C(Cc1ccc(F)cc1)OCn1nnc2ccccc2c1=O`, for which the “hERG current change (%, negative = inhibition) at 1uM” value is on record as 11.4%. As for `COc1cc(COCC(O)CN2CCN(CCN3C(=O)c4cccc5cccc(c45)C3=O)CC2)cc(OC)c1OC.Cl` (stereo not drawn), the “hERG current change (%, negative = inhibition) at 1uM” value is given as -6.37%. The same measure for `Cc1ccc(S(=O)(=O)Nc2cc(C(C(=O)OC(C)C)C(=O)C(F)(F)F)c(O)c3ccccc23)c(C)c1` (stereo not drawn): 15.2%. The same measure for `CSCC(CO)NS(=O)(=O)c1ccc(C)cc1` (stereo not drawn): 12.1%; for `O=C(NCCc1c[nH]c2ccc(Cl)cc12)c1cccnc1`: 4.84%. `CCOC(=O)N1CCC(Nc2c(-c3ccccc3)c(=O)c2=O)CC1`: the “hERG current change (%, negative = inhibition) at 1uM” value stood at 1.25%.

For the compound `Cc1ccccc1NS(=O)(=O)c1ccc(C(=O)N2CC(C)OC(C)C2)cc1` (stereo not drawn), the “hERG current change (%, negative = inhibition) at 1uM” value is listed as 8.07%. The same measure for `O=C(COC(=O)c1cccc(S(=O)(=O)N2CCc3ccccc32)c1)Nc1ccc(Cl)cn1`: 10.3%. In the case of `O=C(CSc1ccc(-c2cccnc2)nn1)Nc1ccccc1` it was 12.1%; in that of `CCOC(=O)N1CCC(NC(=O)c2cccc3c2C(=O)N(Cc2cccnc2)C3)CC1`, 2.17%; in that of `Cc1ccc(O)c(C(=O)c2cc(C(=O)NCc3ccccc3)c(=O)n(Cc3ccccc3)c2)c1`, 14.5%. For the compound `COc1cccc(CN(C)C(=S)Nc2ccc(C)c(C)c2)c1`, the “hERG current change (%, negative = inhibition) at 1uM” value amounted to 10%. In the case of `COc1ccc(CC(=O)NCC2CCCN(Cc3ccc(OC)cc3F)C2)cc1` (stereo not drawn) it was 6.22%; in that of `CC1CCCCC1NC(=O)COC(=O)/C=C/c1ccc2c(c1)OCO2` (stereo not drawn), 16.5%. On to `CCN(CC1CCCN(CCc2cccc(OC)c2)C1)C(=O)C=C(C)C` (stereo not drawn), for which the “hERG current change (%, negative = inhibition) at 1uM” value is on record as -6.97%. For the compound `CCN(CC)CCOC(=O)c1ccc(N/C=C(/C#N)c2nc(-c3ccc(OC)c(OC)c3)cs2)cc1`, the “hERG current change (%, negative = inhibition) at 1uM” value was determined as 10.9%. The same measure for `Cc1ccc(S(=O)(=O)Nc2ccc(NC(=O)Nc3ccc(F)cc3F)cc2)cc1`: 0.874%; for `Cc1ccc(/C=C/C(=O)OCC(=O)NC(C)C)o1`: 7.15%; for `CCOC(=O)c1c(NC(=S)NC(C)=O)sc(C)c1C`: 13.3%.

With `Cc1cccc(NCc2nc(SCC(=O)Nc3ccccc3)n[nH]2)c1`, the “hERG current change (%, negative = inhibition) at 1uM” value came out at 13.6%. Turning to `COc1ccc(CCNC(=O)CNS(=O)(=O)c2ccc(Cl)cc2)cc1`, the “hERG current change (%, negative = inhibition) at 1uM” value came out at 6.58%. The same measure for `Cc1ccc(CN2CCN(/N=C\c3cccc([N+](=O)[O-])c3)CC2)cc1`: 7.04%.

Turning to `CC1Cc2ccccc2N1C(=O)CSc1nnc2n1C(C)(C)Cc1ccccc1-2` (stereo not drawn), the “hERG current change (%, negative = inhibition) at 1uM” value is given as 14.8%. The same measure for `Oc1cccc(/C=N/Nc2ccc(Cl)nn2)c1O`: 11.2%; for `Cc1cc(Nc2ccc3ccccc3c2)n2ncnc2n1`: -0.317%. The same measure for `Cc1cc(/C=C2\Cc3ccccc3C2=O)c(C)n1-c1ccccc1`: -5.15%; for `O=C1c2ccccc2C(=O)N1CCc1csc(-c2ccc(F)cc2)n1`: 4.06%.

As to `COCCN(C(=S)Nc1ccccc1OC)C(C)c1cccs1` (stereo not drawn), the “hERG current change (%, negative = inhibition) at 1uM” value came out at 8.52%.

For the compound `CN(C)c1ccc(/C=C/C(=O)c2ccccc2)cc1[N+](=O)[O-]`, the “hERG current change (%, negative = inhibition) at 1uM” value was -0.74%. As for `COc1ccc(N(CC(=O)NCCC2=CCCCC2)S(=O)(=O)c2ccc(C)cc2)cc1`, the “hERG current change (%, negative = inhibition) at 1uM” value came out at 10.2%. As for `COC(=O)c1ccc(C(=O)OC)c(NC(=S)N2CCCCC2C)c1` (stereo not drawn), the “hERG current change (%, negative = inhibition) at 1uM” value is recorded as -6.37%. Turning to `COc1ccc(CC(=O)N[C@@H](C)C(=O)N2CCC3(CC2)NCCc2[nH]cnc23)cc1`, the “hERG current change (%, negative = inhibition) at 1uM” value is recorded as 5.92%. For `CC(=NCCc1ccccc1)c1c(O)[nH]c(=O)[nH]c1=O`, the “hERG current change (%, negative = inhibition) at 1uM” value is recorded as 3.43%. On to `CCOc1ccc(CCNC(=O)CN(C)S(=O)(=O)c2ccc3c(c2)CCC(=O)N3)cc1OCC`, for which the “hERG current change (%, negative = inhibition) at 1uM” value was 11.1%.

Regarding `Cc1cccc(/C=N/n2c(C3CCCCC3)n[nH]c2=S)c1`, the “hERG current change (%, negative = inhibition) at 1uM” value was determined as 5.65%. With `CC1Sc2ccc(C(=O)OCc3ccccc3Cl)cc2NC1=O` (stereo not drawn), the “hERG current change (%, negative = inhibition) at 1uM” value stood at 17.6%. In the case of `COc1ccccc1NC(=O)CS(=O)(=O)c1cn(CC(=O)N(C(C)C)C(C)C)c2ccccc12` it was -0.963%; in that of `CC(C)(C)c1ccc(COC(=O)CNC(=O)CNC(=O)Cc2ccccc2)cc1`, 5.88%. As to `CCCc1nnc(NC(=O)Cn2c(=O)oc3ccccc32)s1`, the “hERG current change (%, negative = inhibition) at 1uM” value stood at 19.1%. On to `O=S(=O)(c1ccccc1)N1CCCCC1c1cccnc1` (stereo not drawn), for which the “hERG current change (%, negative = inhibition) at 1uM” value is 14.4%. With `CCc1ccc(NC(=O)CCCn2nc(CC)n3c(cc4occc43)c2=O)cc1`, the “hERG current change (%, negative = inhibition) at 1uM” value was determined as 7.94%. As for `O=C(N/N=C/c1ccc2c(c1)OCO2)c1ccc(Cl)cc1Cl`, the “hERG current change (%, negative = inhibition) at 1uM” value stood at 14%.

`O=C(Nc1cccc(NC(=O)c2ccc3c(c2)OCO3)c1)c1ccccc1`: the “hERG current change (%, negative = inhibition) at 1uM” value was -0.193%. The same measure for `O=C(Nc1ccc(F)cc1)c1ccc(Cn2cnnn2)cc1`: 11.1%; for `Cc1ccc(C[n+]2ccccc2)cc1.[Br-]`: 16.5%. As for `O=C(CN1CCCCCC1)Nc1ccccc1C(=O)Nc1ccccc1`, the “hERG current change (%, negative = inhibition) at 1uM” value was -2.27%. The same measure for `Cc1cccc(COc2ccc(/C=N/NC(=O)c3nnn(-c4nonc4N)c3CN3CCCCC3)cc2)c1`: 17.9%; for `CCCn1c(N2CCN(S(=O)(=O)Cc3ccccc3)CC2)nc2ccccc21`: 12.7%; for `Cc1cc(N2C(=O)CCC2=O)ccc1NC(=O)c1cccs1`: 15.5%.

Consider `O=C(Nc1ccc(NC(=O)C2CCCCC2)cn1)c1ccco1`, for which the “hERG current change (%, negative = inhibition) at 1uM” value is 7.92%. As for `COCCCN(C(=O)Nc1ccccc1)C(C)c1ccncc1` (stereo not drawn), the “hERG current change (%, negative = inhibition) at 1uM” value is listed as -1.23%.

On to `COc1ccc(C(=O)NC(=S)N2CCCCC2)cc1`, for which the “hERG current change (%, negative = inhibition) at 1uM” value is 2.59%.

With `COc1cc(-c2noc(C)c2/C=C/c2ccc(OC(C)=O)cc2)cc(OC)c1OC`, the “hERG current change (%, negative = inhibition) at 1uM” value is on record as 14.2%. For the compound `CC(C)CCNC(=O)c1ccc(Cl)c(NC(=O)c2ccccc2F)c1`, the “hERG current change (%, negative = inhibition) at 1uM” value was 10.5%. The same measure for `O=C(COc1ccc([N+](=O)[O-])cc1)N(Cc1cccs1)C1CCS(=O)(=O)C1` (stereo not drawn): 13.3%; for `O=C(Nc1nncs1)c1ccc(N2C(=O)C3C4C=CC(C4)C3C2=O)cc1` (stereo not drawn): 11%.

For the compound `CCOC(=O)Cn1c(=O)n(C2CCCC2)c(=O)c2ccccc21`, the “hERG current change (%, negative = inhibition) at 1uM” value was found to be 1.1%.

As to `Cn1c(N2CCN(S(=O)(=O)c3ccc(F)cc3)CC2)nc2ccccc21`, the “hERG current change (%, negative = inhibition) at 1uM” value is -1.42%. Turning to `C=CCON1C(=O)C(=O)N(OCC=C)[C@H]2CCCC[C@H]21`, the “hERG current change (%, negative = inhibition) at 1uM” value was 8%. For the compound `NC(=O)c1ccc(NC(=O)CSc2nnc(C3CCCCC3)n2N)cc1`, the “hERG current change (%, negative = inhibition) at 1uM” value is 15%. The same measure for `COc1ccc(N(C(=O)CNC(=O)c2ccco2)C(C(=O)NC2CCCCC2)c2ccco2)cc1` (stereo not drawn): 8.78%. The same measure for `COc1ccccc1C(c1nnnn1CS(=O)(=O)c1ccc(C)cc1)N1CCSCC1` (stereo not drawn): 3.5%; for `CCOc1ccc2c(c1)c(C(C)=O)c(C)n2Cc1ccco1`: -11.3%. The same measure for `Cc1cccc(CC(=O)Nc2cc(C)c3c(=O)oc4ccccc4c3n2)c1`: 11%; for `O=C(NCCCN1CCN(c2ccccc2F)CC1)C1CCC(=O)N1C1CCCC1` (stereo not drawn): 4.57%.

Take `CCO[C@@H]1OC(C(=O)NCc2ccccc2)=C[C@H](c2ccccc2)[C@H]1CCCO`: the “hERG current change (%, negative = inhibition) at 1uM” value amounted to 12.6%.

Regarding `Cn1cc(/C=C(\NC(=O)c2ccccc2)C(=O)N2CCOCC2)c2ccccc21`, the “hERG current change (%, negative = inhibition) at 1uM” value worked out at 19.2%. In the case of `CCN(CC)C(=O)COC(=O)C1=NN(c2cc(C)ccc2C)C(=O)CC1`, the “hERG current change (%, negative = inhibition) at 1uM” value was 14.3%. In the case of `COc1cc(/C=C2\C(=N)N3N=C(S(C)(=O)=O)SC3=NC2=O)ccc1OC(=O)c1ccco1` it was 9.48%. For the compound `C[C@]12CCC(=O)C[C@@H]1CC[C@@H]1[C@@H]2CC[C@]2(C)[C@@H](C(=O)COC(=O)CCC(=O)[O-])CC[C@@H]12.[Na+]`, the “hERG current change (%, negative = inhibition) at 1uM” value stood at 18%.

Take `COc1ccc(N=C2C(=O)N3c4c(cccc42)C(C)=CC3(C)C)cc1`: the “hERG current change (%, negative = inhibition) at 1uM” value came out at 11.8%. Consider `CCOC(=O)CSc1nnc(CNC(=O)c2cccs2)n1Cc1ccccc1`, for which the “hERG current change (%, negative = inhibition) at 1uM” value was -8.11%. As to `CCOCCCNCc1cc(Br)ccc1OCc1ccccc1`, the “hERG current change (%, negative = inhibition) at 1uM” value is listed as -33.8%.

As for `Cc1ccc(C)n1-c1ccc(N(C)C)cc1`, the “hERG current change (%, negative = inhibition) at 1uM” value is reported as 2.63%. The same measure for `CN1C(=O)C(C)(C)c2cc(S(=O)(=O)NCCc3ccc(Cl)cc3)ccc21`: -2.96%.

`COc1ccc(CC(=O)NCc2nnc(SCC(=O)Nc3ccccc3)n2C)cc1`: the “hERG current change (%, negative = inhibition) at 1uM” value was found to be 17.7%. The same measure for `CCC(C(=O)NC1CCCCCC1)c1ccccc1` (stereo not drawn): 13.7%; for `COc1ccc(Cl)cc1NC(=O)CN(C)C(=O)c1ccc(-n2nc(C)cc2C)cc1`: 5.36%; for `N=C1c2c(cc(=O)n3c2[nH]c2ccccc23)CN1CCN1CCOCC1`: 14.1%. The same measure for `CN1C(=O)CC(N2CCN(C(c3ccccc3)c3ccccc3)CC2)C1=O` (stereo not drawn): 4.51%.
